{
  "source": "the supplement of paper PMC7726561",
  "sequences": {"B1": {"name": "unnamed (peptide)", "chain": "EPAFPHTDL"}, "B2": {"name": "unnamed (peptide)", "chain": "SPDSNRVTGI"}, "B3": {"name": "unnamed (peptide)", "chain": "RPQGGQDIL"}, "B4": {"name": "unnamed (peptide)", "chain": "SPRQTLEL"}, "B5": {"name": "unnamed (peptide)", "chain": "SPWADNTAL"}, "B6": {"name": "unnamed (peptide)", "chain": "SPRPPAEGF"}, "B7": {"name": "unnamed (peptide)", "chain": "APLPDGRSL"}, "B8": {"name": "unnamed (peptide)", "chain": "VPDAHKDHAL"}, "B9": {"name": "unnamed (peptide)", "chain": "YPHEPTAVF"}, "B10": {"name": "unnamed (peptide)", "chain": "SPRSPSTTYL"}, "B11": {"name": "unnamed (peptide)", "chain": "VPRSASVLL"}, "B12": {"name": "unnamed (peptide)", "chain": "SPRLSLLYL"}, "B13": {"name": "unnamed (peptide)", "chain": "KPMEGNFEEI"}, "B14": {"name": "unnamed (peptide)", "chain": "APFLRQEFI"}, "B15": {"name": "unnamed (peptide)", "chain": "APVQRPKL"}, "B16": {"name": "unnamed (peptide)", "chain": "KPINFSVIL"}, "B17": {"name": "unnamed (peptide)", "chain": "KMLTFLML"}, "B18": {"name": "unnamed (peptide)", "chain": "MPRTGNGPMSV"}, "B19": {"name": "unnamed (peptide)", "chain": "GPRTAALGL"}, "B20": {"name": "unnamed (peptide)", "chain": "FIRNRTLQL"}, "B21": {"name": "unnamed (peptide)", "chain": "SPHDISNVL"}, "B22": {"name": "unnamed (peptide)", "chain": "LPRNEADEL"}, "B23": {"name": "unnamed (peptide)", "chain": "RPALPSTQQL"}, "B24": {"name": "unnamed (peptide)", "chain": "SPNAIFKAL"}, "B25": {"name": "unnamed (peptide)", "chain": "YPNFAGPHAAL"}, "B26": {"name": "unnamed (peptide)", "chain": "MPRGVVVTL"}, "B27": {"name": "unnamed (peptide)", "chain": "TPISRLVAL"}, "B28": {"name": "unnamed (peptide)", "chain": "LPEAERNLL"}, "B29": {"name": "unnamed (peptide)", "chain": "VPPQNPRPSL"}, "B30": {"name": "unnamed (peptide)", "chain": "LPRTAISEL"}, "B31": {"name": "unnamed (peptide)", "chain": "APGPPGRSML"}, "B32": {"name": "unnamed (peptide)", "chain": "IPRPEVQAL"}, "B33": {"name": "unnamed (peptide)", "chain": "RVREIIINAV"}, "B34": {"name": "unnamed (peptide)", "chain": "TPDTGRILSKL"}, "B35": {"name": "unnamed (peptide)", "chain": "YPRAQLEVSAL"}, "B36": {"name": "unnamed (peptide)", "chain": "LPSASHFSQL"}, "B37": {"name": "unnamed (peptide)", "chain": "RPVPWNAL"}, "B38": {"name": "unnamed (peptide)", "chain": "APYGRITL"}, "B39": {"name": "unnamed (peptide)", "chain": "FDPALLEF"}, "B40": {"name": "unnamed (peptide)", "chain": "HPRAPVLL"}, "B41": {"name": "unnamed (peptide)", "chain": "SPRKDGLVSL"}, "B42": {"name": "unnamed (peptide)", "chain": "IPANWKTEL"}, "B43": {"name": "unnamed (peptide)", "chain": "LPRENQVVEL"}, "B44": {"name": "unnamed (peptide)", "chain": "RPDDVPLSL"}, "B45": {"name": "unnamed (peptide)", "chain": "APPRPGSSF"}, "B46": {"name": "unnamed (peptide)", "chain": "QPRTPSPLVL"}, "B47": {"name": "unnamed (peptide)", "chain": "APKPKWTQL"}, "B48": {"name": "unnamed (peptide)", "chain": "IPELHRPVV"}, "B49": {"name": "unnamed (peptide)", "chain": "WVDEERASL"}, "B50": {"name": "unnamed (peptide)", "chain": "SPASRSISLL"}, "B51": {"name": "unnamed (peptide)", "chain": "APREDPVLL"}, "B52": {"name": "unnamed (peptide)", "chain": "RPHAFQVIL"}, "B53": {"name": "unnamed (peptide)", "chain": "RPAFFAERL"}, "B54": {"name": "unnamed (peptide)", "chain": "RPAGALVAL"}, "B55": {"name": "unnamed (peptide)", "chain": "RPRPPITL"}, "B56": {"name": "unnamed (peptide)", "chain": "VPVPPNVAF"}},
  "note": "Over roughly 1,400 sequences, “thermal melting temperature (Tm) of peptide-HLA complex” has its median near 60; the lowest 2% begin near 45. Some of the results follow.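 Note: cell lysates heated 10 min at 37–73 °C, remaining pHLA pulled down with pan-class I antibody, peptides quantified by DIA-MS versus 37 °C, Tm where half the complex is lost.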",
  "data": [
    {"target": "HLA-B*07:02", "experiment": "thermal melting temperature (Tm) of peptide-HLA complex; higher = more thermostable pHLA complex", "conditions": "C1R-B*07:02", "units": {"thermal melting temperature": "°C"}, "values": [
      {"sequence": "B1", "thermal melting temperature": 58.6},
      {"sequence": "B2", "thermal melting temperature": 56.1},
      {"sequence": "B3", "thermal melting temperature": 57.9},
      {"sequence": "B4", "thermal melting temperature": 57.8},
      {"sequence": "B5", "thermal melting temperature": 62.1},
      {"sequence": "B6", "thermal melting temperature": 55.8},
      {"sequence": "B7", "thermal melting temperature": 58.4},
      {"sequence": "B8", "thermal melting temperature": 67.1},
      {"sequence": "B9", "thermal melting temperature": 63.8},
      {"sequence": "B10", "thermal melting temperature": 58.8},
      {"sequence": "B11", "thermal melting temperature": 60.1},
      {"sequence": "B12", "thermal melting temperature": 63.4},
      {"sequence": "B13", "thermal melting temperature": 58.1},
      {"sequence": "B14", "thermal melting temperature": 63},
      {"sequence": "B15", "thermal melting temperature": 58.6},
      {"sequence": "B16", "thermal melting temperature": 61},
      {"sequence": "B17", "thermal melting temperature": 61.7},
      {"sequence": "B18", "thermal melting temperature": 50.3},
      {"sequence": "B19", "thermal melting temperature": 61.3},
      {"sequence": "B20", "thermal melting temperature": 61.5},
      {"sequence": "B21", "thermal melting temperature": 60.1},
      {"sequence": "B22", "thermal melting temperature": 56.8},
      {"sequence": "B23", "thermal melting temperature": 57.6},
      {"sequence": "B24", "thermal melting temperature": 62.4},
      {"sequence": "B25", "thermal melting temperature": 57.9},
      {"sequence": "B26", "thermal melting temperature": 61.3},
      {"sequence": "B27", "thermal melting temperature": 61.8},
      {"sequence": "B28", "thermal melting temperature": 60.7},
      {"sequence": "B29", "thermal melting temperature": 54.5},
      {"sequence": "B30", "thermal melting temperature": 62},
      {"sequence": "B31", "thermal melting temperature": 60},
      {"sequence": "B32", "thermal melting temperature": 54.1},
      {"sequence": "B33", "thermal melting temperature": 57},
      {"sequence": "B34", "thermal melting temperature": 60.6},
      {"sequence": "B35", "thermal melting temperature": 61.5},
      {"sequence": "B36", "thermal melting temperature": 60.4},
      {"sequence": "B37", "thermal melting temperature": 58.8},
      {"sequence": "B38", "thermal melting temperature": 59.7},
      {"sequence": "B39", "thermal melting temperature": 42.6},
      {"sequence": "B40", "thermal melting temperature": 59.5},
      {"sequence": "B41", "thermal melting temperature": 61.1},
      {"sequence": "B42", "thermal melting temperature": 60.2},
      {"sequence": "B43", "thermal melting temperature": 59.5},
      {"sequence": "B44", "thermal melting temperature": 60},
      {"sequence": "B45", "thermal melting temperature": 56},
      {"sequence": "B46", "thermal melting temperature": 60.2},
      {"sequence": "B47", "thermal melting temperature": 57.4},
      {"sequence": "B48", "thermal melting temperature": 59.5},
      {"sequence": "B49", "thermal melting temperature": 54.4},
      {"sequence": "B50", "thermal melting temperature": 57.1},
      {"sequence": "B51", "thermal melting temperature": 63},
      {"sequence": "B52", "thermal melting temperature": 60.2},
      {"sequence": "B53", "thermal melting temperature": 59.6},
      {"sequence": "B54", "thermal melting temperature": 59.9},
      {"sequence": "B55", "thermal melting temperature": 62.7},
      {"sequence": "B56", "thermal melting temperature": 63.3}
    ]}
  ]
}
